Reference: the supplement of paper PMC9446081
In all, about 39,000 compounds went through this assay and about 220 (0.56%) showed activity. This is one part of the list.

Tested on: Escherichia coli K-12 BW25113
Experiment: relative growth (OD600 normalised to plate interquartile mean) (fraction); higher = less growth inhibition, active = 0.2 or less
Conditions: 50 µM; LB; incubation time: overnight (16-24 h)
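Note: static incubation at 37 °C against the wild-type strain, values averaged over two biological replicates.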

SMILES	relative growth
COc1cc([C@@H]2c3cc4c(cc3[C@@H](O[C@@H]3O[C@@H]5CO[C@@H](C)O[C@H]5[C@H](O)[C@H]3O)[C@@H]3COC(=O)[C@@H]23)OCO4)cc(OC)c1O	inactive: 1.01
Cc1cc(C(=O)Nc2cccc3c2O[C@H](CN(C)S(=O)(=O)c2ccccc2)[C@H](C)CN([C@@H](C)CO)C3=O)n(C)n1	inactive: 0.993
CCOC(=O)c1nnn(-c2nonc2N)c1CN1CCSCC1	inactive: 1.01
C[C@@H]1CCCCO[C@@H](CN(C)S(=O)(=O)c2cn(C)cn2)[C@H](C)CN([C@@H](C)CO)C(=O)c2cc(NS(=O)(=O)c3cn(C)cn3)ccc2O1	inactive: 0.992
CC(C)NC(=O)N(C)C[C@H]1Oc2ccc(NC(=O)CCCN(C)C)cc2C(=O)N([C@@H](C)CO)C[C@@H]1C	inactive: 0.972
COc1ccc(S(=O)(=O)N(C)C[C@H]2OCCCC[C@H](C)Oc3ccc(NC(=O)CCC(F)(F)F)cc3C(=O)N([C@H](C)CO)C[C@H]2C)cc1	inactive: 1
C[C@H]1CN([C@@H](C)CO)C(=O)Cc2cc(NS(=O)(=O)c3ccc(F)cc3)ccc2O[C@@H]1CN(C)Cc1ccncc1	inactive: 0.99
COc1ccc(S(=O)(=O)Nc2ccc3c(c2)C(=O)N([C@H](C)CO)C[C@@H](C)[C@H](CN(C)S(=O)(=O)c2cccs2)O3)cc1	inactive: 1.01
C[C@H](CO)N1C[C@H](C)[C@H](CN(C)S(=O)(=O)c2cccs2)Oc2ccc(NS(=O)(=O)c3cn(C)cn3)cc2C1=O	inactive: 0.993
CC(=O)NCCc1ccc(O)c(-c2c(O)c(O)c3c(c2O)C(=O)c2c(cc(O)c(C(=O)O)c2C(=O)O)C3=O)c1	inactive: 1.05
O=C(O)CCCNC(=O)c1ccccn1	inactive: 0.965
CO[C@H]1CN(C)C(=O)c2cc(NC(=O)C3CCOCC3)ccc2OC[C@H](C)N(Cc2cccnc2)C[C@@H]1C	inactive: 0.984
C[C@@H]1CCCCO[C@@H](CN(C)C(=O)CCC(F)(F)F)[C@@H](C)CN([C@@H](C)CO)C(=O)c2cc(NS(=O)(=O)c3ccc(Cl)cc3)ccc2O1	inactive: 0.981
Cc1noc(C)c1S(=O)(=O)Nc1ccc2c(c1)C(=O)N([C@@H](C)CO)C[C@H](C)[C@@H](CN(C)C(=O)Nc1ccccc1)OCCCC[C@@H](C)O2	inactive: 0.984
COc1ccc(NC(=O)Nc2ccc3c(c2)CC(=O)N([C@@H](C)CO)C[C@H](C)[C@H](CN(C)S(=O)(=O)c2cn(C)cn2)O3)cc1	inactive: 1.01
Cc1noc(C)c1S(=O)(=O)Nc1cccc2c1O[C@H](CN(C)S(=O)(=O)c1ccc(Cl)cc1)[C@H](C)CN([C@H](C)CO)C2=O	inactive: 1.02
COCCOC(=O)N1C(=O)[C@@]2(c3cc(C#CCCO)ccc31)[C@H](c1ccc(O)cc1)N1[C@H](c3ccccc3)[C@H](c3ccccc3)OC(=O)[C@H]1[C@@H]2C(=O)N1CCc2cc(OC)c(OC)cc2C1	inactive: 0.999
COc1cc(/C=C/C(=O)O[C@H]2CC[C@]34C[C@]35CC[C@]3(C)[C@@H]([C@@H](C)CCC=C(C)C)CC[C@@]3(C)[C@@H]5CC[C@@H]4C2(C)C)ccc1O	inactive: 0.957
C[C@@H]1CCCCO[C@H](CN(C)C(=O)Nc2ccccc2)[C@H](C)CN([C@@H](C)CO)C(=O)c2cc(NS(=O)(=O)c3ccccc3)ccc2O1	inactive: 1
C=CC[C@H](CC(=O)NCCO)C(=O)NC[C@@H](OC(=O)[C@H](CC=C)CC(=O)OC(C)(C)C)c1ccccc1	inactive: 0.984
C[C@@H]1CN([C@@H](C)CO)C(=O)c2cc(NC(=O)c3ccccc3)ccc2O[C@@H](C)CCCCO[C@@H]1CN(C)C(=O)Nc1cccc2ccccc12	inactive: 1.02
CCC1OC(=O)C(C)C(OC2CC(C)(OC)C(O)C(C)O2)C(C)C(OC2OC(C)CC(N(C)C)C2O)C(C)(OC)CC(C)C(=O)C(C)C(O)C1(C)O (stereo not given)	inactive: 0.536
C#CCOc1ccc(-c2c(C(=O)NC3CCCCC3)oc(OC)c2S(=O)(=O)c2ccc(Cl)cc2)cc1	inactive: 1.02
[N-]=[N+]=N[C@]1(CO)O[C@@H](n2ccc(N)nc2=O)[C@@H](O)[C@@H]1O	inactive: 1.02
CC(=O)OCC(=O)C1(O)CCC2C3CCC4=CC(=O)CCC4(C)C3(F)C(O)CC21C (stereo not given)	inactive: 1.11
O=C(C[C@H]1CC[C@@H]2[C@H](COC[C@@H](O)CN2C(=O)Nc2cccc(F)c2)O1)NCc1ccccc1Cl	inactive: 0.987
C[C@H](CO)N1C[C@H](C)[C@H](CN(C)Cc2ccc(Cl)c(Cl)c2)Oc2ccc(NC(=O)Nc3ccc(F)cc3)cc2C1=O	inactive: 1.01
C[C@H]1CCCCO[C@@H](CN(C)C(=O)C2CCCCC2)[C@@H](C)CN([C@@H](C)CO)C(=O)c2cc(NS(=O)(=O)c3ccccc3)ccc2O1	inactive: 1.03

SMILES	relative growth
O=C(C[C@@H]1CC=CCCC(=O)OC[C@H](Cc2c[nH]c3ccccc23)NC1=O)N[C@H](CO)Cc1ccccc1	inactive: 0.985
Cc1noc(C)c1S(=O)(=O)N(C)C[C@H]1Oc2c(NC(=O)C3CC3)cccc2C(=O)N([C@@H](C)CO)C[C@H]1C	inactive: 1.01
C[C@@H]1CN([C@H](C)CO)C(=O)c2cc(NS(=O)(=O)c3cccs3)ccc2O[C@@H](C)CCCCO[C@@H]1CN(C)C(=O)NC1CCCCC1	inactive: 1
C[C@@H]1CN([C@H](C)CO)C(=O)c2ccccc2-c2ccccc2CO[C@@H]1CN(C)Cc1ccc(C(F)(F)F)cc1	inactive: 0.992
C[C@H](CO)N1C[C@H](C)[C@@H](CN(C)S(C)(=O)=O)Oc2ccc(NS(=O)(=O)c3cn(C)cn3)cc2CC1=O	inactive: 0.999
C[N+](C)(C)CCCCNC(=O)[C@H]1C[C@H]2C(=O)N[C@@H](Cc3ccccc3)C(=O)N2[C@H]1c1cccc(OCCO)c1	inactive: 1.02
C[C@@H]1CCCCO[C@H](CN(C)S(=O)(=O)c2cn(C)cn2)[C@@H](C)CN([C@H](C)CO)C(=O)c2cc(NS(=O)(=O)c3cn(C)cn3)ccc2O1	inactive: 0.972
C[C@@H]1CN([C@H](C)CO)C(=O)c2cc(NS(=O)(=O)c3ccccc3)ccc2O[C@@H](C)CCCCO[C@@H]1CN(C)S(C)(=O)=O	inactive: 0.995
C[C@H]1CCCCO[C@H](CN(C)CC2CCCCC2)[C@@H](C)CN([C@@H](C)CO)C(=O)c2cc(NC(=O)Nc3ccc4c(c3)OCO4)ccc2O1	inactive: 0.868
COc1ccc2c3c([nH]c2c1)[C@H](CO)N(C[C@]13CCN(CC1)CC1CCCCC1)C(=O)Nc1c(noc1C)C	inactive: 1.01
C[C@H](CO)N1C[C@H](C)[C@@H](CN(C)Cc2ccccc2)OCCCC[C@H](C)Oc2ccc(NC(=O)C3CCCCC3)cc2C1=O	inactive: 1.01
C[C@@H]1CN([C@@H](C)CO)C(=O)Cc2cc(NS(=O)(=O)c3ccc(Cl)cc3)ccc2O[C@H]1CN(C)Cc1ccc(C(=O)Nc2ccccc2N)cc1	inactive: 1.01
COc1ccc([Si](C)(C)[C@H]2[C@H](CCOC(=O)NCCCCCC(=O)NO)O[C@@]3(C(=O)N(Cc4ccccc4)c4ccc(I)cc43)[C@@H]2C)cc1	inactive: 1.01
CN1C(=O)c2cc(NC(=O)C3CCOCC3)ccc2OC[C@H]2O[C@@H](CC(=O)NCc3ccc4c(c3)OCO4)CC[C@H]21	inactive: 0.999
Cc1noc(C)c1S(=O)(=O)N(C)C[C@@H]1OCCCC[C@H](C)Oc2ccc(NS(C)(=O)=O)cc2C(=O)N([C@H](C)CO)C[C@H]1C	inactive: 0.987
C[C@H]1CN([C@@H](C)CO)C(=O)c2cccc(NC(=O)c3ccncc3)c2O[C@@H]1CN(C)S(=O)(=O)c1ccccc1	inactive: 1.01
C[C@@H]1CN([C@H](C)CO)C(=O)c2c(c3ccccc3n2C)-c2ccccc2CO[C@H]1CN(C)Cc1cccc2c1OCCCO2	inactive: 1.01
C[C@H](CO)N1C[C@H](C)[C@H](CN(C)Cc2ccc(C(=O)Nc3ccccc3N)cc2)Oc2ccc(NC(=O)NC3CCCCC3)cc2C1=O	inactive: 0.996
C[C@@H]1CCCCO[C@@H](CN(C)C(=O)Nc2ccc(C(F)(F)F)cc2)[C@H](C)CN([C@H](C)CO)C(=O)c2cc(NC(=O)c3ccncc3)ccc2O1	inactive: 0.902
COc1cc(C[C@H]2CO[C@H](c3ccc(O)c(OC)c3)[C@@H]2CO[C@H]2O[C@@H](CO)[C@@H](O)[C@@H](O)[C@@H]2O)ccc1O	inactive: 0.946
O=C(C[C@@H]1C[C@H]2c3cc(NC(=O)Nc4ccc(C(F)(F)F)cc4)ccc3O[C@H]2[C@@H](CO)O1)NCCc1ccccc1	inactive: 1.02
C[C@H]1CCCCO[C@@H](CN(C)C(=O)c2ccncc2)[C@@H](C)CN([C@@H](C)CO)C(=O)c2cc(NC(=O)C3CCCCC3)ccc2O1	inactive: 1.04
C[C@@H]1CN([C@H](C)CO)C(=O)c2cc(C#CC3(O)CCCC3)cnc2O[C@@H]1CN(C)S(=O)(=O)c1ccccc1	inactive: 0.978
CC(C)=CC[N+]1(C)CCCCC1	inactive: 0.999
CC(C)NC(=O)Nc1cccc2c1O[C@H](CN(C)S(=O)(=O)c1ccc(Cl)cc1)[C@@H](C)CN([C@H](C)CO)C2=O	inactive: 0.92
CCCC#Cc1ccc2c(c1)O[C@@H](CN(C)C(=O)c1cnccn1)[C@@H](C)CN([C@H](C)CO)S2(=O)=O	inactive: 0.971
C[C@H]1CN([C@@H](C)CO)C(=O)c2cccc(NC(=O)Nc3ccc(C(F)(F)F)cc3)c2O[C@H]1CN(C)Cc1ccccc1	inactive: 0.977
